# Results published in PubChem BioAssay AID1963576 (National Center for Advancing Translational Sciences (NCATS), 2024).
# The campaign covered roughly 46,000 compounds. About 60 (0.1%) were called active. Roughly 3% stayed inconclusive and do not appear here. Calls follow the shape of the dose curve; as a rule, active = well fitted inhibition curve with a large enough effect; inconclusive = small, poorly fitted or top-dose-only effect; inactive = no such curve, though single readings can be large or run the other way. Some of the results follow.
# Experiment: Primary qHTS assay for Inhibitors of ovarian cancer metastasis using an organotypic tumor microenvironment (TME) model. Also: nearly all actives have a fitted effect of over 65% in size.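 As to activity change, negative = inhibition: plate controls were DMSO wells for no effect and tomatine positive control wells for full effect.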
# Conditions: SKOV3ip1-GFP adhesion/invasion on 3D omental model, fluorescence; series mostly up to 45.8 µM; activity change, negative = inhibition: at the top concentration
# Method in brief: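 Primary human omental fibroblast/mesothelial 3D culture pre-formed 48 h. SKOV3ip1-GFP cells added with compounds (0.36-46 umol/L), incubated 2 h RT/16 h 37 C, fixed; GFP cells quantified at 488/509 nm.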
Compound,"activity change, negative = inhibition",outcome
Cn1c(=O)oc2cc(S(=O)(=O)Nc3ccccc3O)ccc21,inactive: -5.2%,
Cc1c(Cl)cccc1-n1nc(C)c2c(C(=O)NCc3ccccc3)cc(C3CC3)nc21,inactive: 8.98%,
Cc1nc2c(-c3ccccc3)c(C)nn2c(C)c1CCC(=O)NCc1ccc(F)cc1,inactive: -6.72%,
CCOc1ccc(NC(=O)CC2C(=O)N(c3ccccc3)C(=O)N2Cc2ccc3c(c2)OCO3)cc1 (stereo unspecified),inactive: 4.39%,
Cc1ccc(CNC(=O)C2CCN(S(=O)(=O)c3cc(-c4noc(C)n4)ccc3C)CC2)cc1,inactive: 0.817%,
O=C(NCc1ccc(Cl)cc1)C1CCN(S(=O)(=O)Cc2ccccc2)CC1,inactive: -23.7%,
COc1ccc(-c2cc(C(F)(F)F)nc(SCC(=O)N3CCC(C)CC3)n2)cc1,inactive: 3.22%,
Cc1ccc(-c2cc(NC(=O)COc3ccc(Cl)cc3C)on2)cc1,inactive: 6.36%,
CCOc1ccc(CCNC(=O)c2cc3c(s2)-c2ccccc2OC3)cc1OCC,,inactive
Cc1ccc(CN2C(=O)N(c3ccccc3)C(=O)C2CC(=O)Nc2ccccc2)cc1 (stereo unspecified),inactive: 3.76%,
COc1cc(OC)c(N(C)C(=O)Cn2ncc3c(=O)oc4ccccc4c32)cc1Cl,,inactive
COC(=O)c1ccccc1NC(=O)N1CCC(n2c(C)nc3cccnc32)CC1,inactive: -4.61%,
COCCNC(=O)c1c(NC(=O)c2cc(=O)c3cc(Cl)ccc3o2)sc2c1CCCC2,,inactive
Cc1ccc(NC(=O)N2CCN(C)c3ncccc32)cc1C,inactive: -11.4%,
O=C(CN1C(=O)COc2ccc(S(=O)(=O)N3CCCCCC3)cc21)NCCc1ccccc1,inactive: 2.92%,
COC(=O)c1ccccc1NC(=O)c1cnc2sc(N3CCOCC3)nn2c1=O,inactive: 8.79%,
CCC(C)NC(=O)CSc1nc(-c2ccc(F)cc2)cc(C(F)(F)F)n1 (stereo unspecified),,inactive
Cc1ccc(CNC(=O)c2cc(=O)c3cc(C)cc(C)c3o2)cc1,inactive: 0.52%,
CC(=O)N1CCN(c2csc3ccc(Br)cc3c2=O)CC1,inactive: 1.06%,
CCc1cccc(C)c1NC(=O)Cn1cc2c(n1)CCCCC2,inactive: -5%,
COc1ccccc1NC(=O)Cn1nnc(C(=O)Nc2ccccc2Br)c1N,inactive: -5.72%,
COc1cccc(C(=O)Nc2cccc(C(=O)OCc3cc(=O)n4c5c(sc4n3)CCCC5)c2)c1,,inactive
CCc1nn(CCCC(=O)NCc2cc(Br)ccc2OC)c(=O)c2cc3occc3n12,inactive: -9.47%,
Cc1cccc(NS(=O)(=O)c2ccc3c(c2)OCC(C(=O)N2CCCC2)O3)c1C (stereo unspecified),inactive: 13.7%,

Compound,"activity change, negative = inhibition",outcome
CCOc1ccc(NC(=O)c2cc3cc4cc(OC)ccc4nc3s2)cc1,inactive: -1.98%,
O=C(NCCS(=O)(=O)N1CCN(c2ccc(F)cc2)CC1)C1CC(=O)N(c2ccccc2)C1 (stereo unspecified),inactive: -5.37%,
Cc1ccc(S(=O)(=O)c2cn(CC(=O)Nc3ccc4c(c3)OCO4)c3ccccc3c2=O)cc1C,inactive: 6.19%,
CC(C)(C)C(=O)Nc1ccc2nc(SCC(=O)N3CCc4ccccc43)sc2c1,inactive: -2.66%,
COc1ccccc1-n1c(=O)c2c3c(sc2n(Cc2ccccc2F)c1=O)CN(C(C)=O)CC3,,inactive
Cc1ccc(-c2nnc(Nc3ccc(O)cc3)c3ccccc23)cc1S(=O)(=O)N1CCCCC1,inactive: -5.53%,
O=c1c2cccnc2n(Cc2cccc(F)c2)c(=O)n1Cc1ccccc1Cl,inactive: 2.55%,
CCOC(=O)CSc1nc2c(sc3cccc(F)c32)c(=O)n1Cc1ccc(OC)cc1,,inactive
COc1ccc2cc(CNc3ccc(C)cc3)c(=O)n(CC(=O)Nc3cccc(C(F)(F)F)c3)c2c1,inactive: -5.53%,
CC(C)c1cc(-c2nc(-c3ccc(Br)cc3)no2)n[nH]1,,inactive
CCN1CCN(c2ncc3c(n2)CCN(Cc2ccc(OC)c(OC)c2)C3)CC1,inactive: -8.28%,
C[C@H]1C[C@H]2[C@@H]3CCC4=CC(=O)C=C[C@]4(C)[C@@H]3C(=O)C[C@]2(C)[C@@]1(O)C(=O)CO,inactive: -1.35%,
COc1ccc2[nH]c(=O)c(CN(C(=O)c3cccc(Cl)c3)c3cccc(C)c3)cc2c1,inactive: 0.475%,
CCCN(Cc1cccs1)C(=O)Nc1ccc(Br)cc1F,inactive: -5.93%,
CCCN1CCN(CCNC(=O)Nc2ccccc2OCC)CC1,,inactive
CCOC(=O)c1c(C)[nH]c(C)c1S(=O)(=O)NCC(=O)NCc1ccccc1Cl,,inactive
COc1cc(C(CC(=O)Nc2cc(C)ccn2)N2Cc3ccccc3C2=O)cc(OC)c1OC (stereo unspecified),,inactive
CN(Cc1ccccc1)C(=O)c1cc(-c2cccc(Cl)c2)on1,inactive: -0.789%,
CCN1C(=O)c2ccccc2S(=O)c2ccc(C(=O)N3CCN(c4ccccc4OC)CC3)cc21 (stereo unspecified),inactive: 35%,
COc1cccc(CNC(=O)CCCCCn2c(=O)[nH]c3cc(OC)c(OC)cc3c2=O)c1,inactive: 1.77%,
Cc1cccc(Cc2c(C)nc3nc(SCc4ccccc4F)nn3c2C)c1,inactive: 5.8%,
CCOc1ccccc1C(=O)Nc1ccc(S(=O)(=O)Nc2ncccn2)cc1,,inactive
COc1ccccc1CNC(=O)CCCn1c(=O)c2ccccc2n(Cc2ccccc2C#N)c1=O,inactive: 43.2%,
COc1ccc2c(c1)c1c(c(=O)n(-c3cccc(C)c3)c(=O)n1CC(=O)NCC1CCCO1)n2C (stereo unspecified),inactive: -15%,

Compound,"activity change, negative = inhibition",outcome
COc1ccccc1NC(=O)CSc1oc(-c2ccccc2)nc1S(=O)(=O)c1ccccc1,inactive: 0.255%,
Cc1cc2c(n1-c1ccc(C(=O)NCc3ccc(OC(C)C)cc3)cc1)CCCC2,inactive: -21.5%,
COc1cc(-c2oc3ccc(C)cc3c(=O)c2O)cc(OC)c1OC,inactive: 4.04%,
COc1ccc(Nc2ncnc3onc(C)c23)c(OC)c1,,inactive
Cc1ccc(Sc2c(C)nn(C(=O)c3ccc(Br)cc3)c2C)cc1,inactive: 1.57%,
O=C(CSC1=Nc2ccccc2N=C(c2ccc(F)cc2)C1)Nc1ccc(Cl)cc1,,inactive
CC(=O)Nc1ccc(NC(=O)c2cc(-c3cccs3)on2)cc1,,inactive
CCc1cccc(C)c1NC(=O)c1ccc2c(c1)CCN2S(=O)(=O)CC,inactive: -0.432%,
COc1ccc(OC)c(NC(=O)Cn2c(=O)n(Cc3nc(C)no3)c(=O)c3ccccc32)c1,inactive: 11.6%,
COc1ccc(Cl)cc1NC(=O)NCCc1c(C)nn(C)c1C,inactive: -3.02%,
COc1ccc(N2CCN(C(=O)C(C)n3c(=O)cc(C(F)(F)F)c4c(C)nn(C)c43)CC2)cc1 (stereo unspecified),inactive: -10.2%,
COc1ccccc1CNS(=O)(=O)c1ccc2c(c1)CC(C)N2C(=O)C1CCC1 (stereo unspecified),inactive: -3.63%,
Cc1ccc(S(=O)(=O)c2nc(-c3ccco3)oc2SCc2ccc(F)cc2)cc1,inactive: 4.03%,
CC1(C(=O)NC2CCCCC2)Cc2ccccc2C(=O)N1Cc1ccc(F)cc1 (stereo unspecified),,inactive
COc1ccc(-c2cc(C)no2)cc1S(=O)(=O)NC1CCC(C)CC1 (stereo unspecified),inactive: 5.43%,
Cc1cccc(N2CCN(C(=O)Cn3ncc4c([nH]c5ccccc54)c3=O)CC2C)c1 (stereo unspecified),,inactive
Cn1cnc(S(=O)(=O)N2CCCC(C(=O)NCc3ccccc3)C2)c1 (stereo unspecified),inactive: -1.18%,
CCOc1ccc(NC(=O)c2cc(C)nc3c2c(C)nn3-c2cccc(F)c2)cc1,inactive: -2.87%,
Cc1ccc(NC(=O)C2CCCN2S(=O)(=O)c2ccc3c(c2)C(C)(C)C(=O)N3C)cc1 (stereo unspecified),inactive: -6.45%,
Nc1nc(F)nc2c1ncn2[C@@H]1O[C@H](CO)[C@@H](O)[C@@H]1O,inactive: -7.23%,
COc1cccc(NC(=O)c2c(N3CCCC3=O)c3cc(C)ccc3n2C)c1,inactive: -17.2%,
O=C(NCCS(=O)(=O)N1CCN(c2ccccc2F)CC1)C1CC(=O)N(c2ccccc2)C1 (stereo unspecified),inactive: -9.67%,
CCOc1ccc(CNC(=O)c2cnc3sc(N(CC)CC)nn3c2=O)cc1,,inactive
Cc1c(OCC(F)(F)F)ccnc1CS(=O)c1nc2ccccc2[nH]1 (stereo unspecified),inactive: 0.249%,

Compound,"activity change, negative = inhibition",outcome
COc1ccc(S(=O)(=O)NCCc2sc3nc(-c4ccc(C)cc4)nn3c2C)cc1F,inactive: -5.94%,
O=C(CSc1nc2ccccc2nc1Cc1ccccc1)Nc1ccccc1C(F)(F)F,inactive: 7.96%,
CCCCN(Cc1ccccc1)S(=O)(=O)c1cc(Br)cc2c1N(C(C)=O)CC2,inactive: 0.781%,
CCOC(=O)CCCN1C(=O)CCn2nc(-c3cn(C)c4ccccc34)cc21,,inactive
CCOc1ccc(CCNC(=O)c2cccc(-n3c(C)nc4cccnc43)c2C)cc1,inactive: 9.96%,
CCc1ccccc1NC(=O)C(CC)Oc1ccccc1-c1nnc(-c2ccccc2)o1 (stereo unspecified),inactive: 4.43%,
O=C(Nc1ccc(C(=O)OCc2cc(=O)n3nc(C4CC4)sc3n2)cc1)c1cccc(Cl)c1,inactive: 5.31%,
CCCCC(=O)Nc1c(C(=O)N2CCN(c3ccccc3)CC2)oc2ccccc12,,inactive
CCOc1ccc(CNC(=O)c2cccn2-c2nnc(N3CCCCC3)s2)cc1OC,,inactive
CCOCCCNC(=O)c1cc(=O)[nH]c2ccc(S(=O)(=O)N3CCCC3)cc12,inactive: 69.3%,
CCCSc1ncc(Cl)c(C(=O)Nc2scc(-c3ccc(C)cc3)c2C(=O)OCC)n1,,inactive
CCCCCn1c(=O)[nH]c2cc(C(=O)N3CCN(c4cccc(OC)c4)CC3)ccc2c1=O,inactive: 81.8%,
COc1ccc(-c2nc3c(c(SCC(=O)Nc4ccccc4OC)n2)Cc2cccc(C)c2O3)cc1,inactive: 9.75%,
O=C1CC(c2ccc(Cl)cc2)c2cc3c(cc2N1)OCCO3 (stereo unspecified),,inactive
CCc1cccc(C)c1NC(=O)C1CCN(S(=O)(=O)c2cccc3nonc23)CC1,,inactive
COc1ccc(C(=O)Nc2c(C(=O)c3ccc(F)cc3)oc3ccccc23)cc1,,inactive
O=C(CS(=O)(=O)c1cccc2nsnc12)Nc1ccc(F)cc1F,,inactive
N#Cc1ccccc1NC(=O)C(=O)NCC(c1ccc2c(c1)OCO2)N1CCOCC1 (stereo unspecified),,inactive
Cc1ccc(-n2c(=O)c3oc4ccccc4c3n(CC(=O)Nc3ccc(F)c(Cl)c3)c2=O)cc1C,inactive: -9.44%,
Cc1cc(C)cc(OCc2cc(=O)n3c4c(sc3n2)CCCC4)c1,inactive: -16%,
CC(C)Oc1ccc(CNC(=O)C2CCCCN2S(=O)(=O)c2ccc(F)cc2)cc1 (stereo unspecified),inactive: 4.23%,
CCC(C)NC(=O)Cc1ccc(NC(=O)N2CCCCc3ccccc32)cc1 (stereo unspecified),inactive: -4.89%,
Cc1ccc(-c2nc(CS(=O)CC(=O)N3CCN(c4ccc(F)cc4)CC3)c(C)o2)cc1 (stereo unspecified),inactive: -4.87%,
O=C(Nc1ccccc1F)C1CCN(S(=O)(=O)c2ccc3c(c2)CCCN3C(=O)C2CCC2)CC1,inactive: 13.8%,
